Test results taken from article PMC6697746.
Results are given in words; binding and its absence hold for the method and conditions named. Binding seen in cells or lysates may run through a third protein. Some results given as binding are weak or reduced against the parent protein; the word gives no strength.

Chains of the proteins cited; added tags and fusions are not shown. Lines headed by an entry give the natural chain unless they say otherwise; changes in a name come on top.
UniProt Q9UM11: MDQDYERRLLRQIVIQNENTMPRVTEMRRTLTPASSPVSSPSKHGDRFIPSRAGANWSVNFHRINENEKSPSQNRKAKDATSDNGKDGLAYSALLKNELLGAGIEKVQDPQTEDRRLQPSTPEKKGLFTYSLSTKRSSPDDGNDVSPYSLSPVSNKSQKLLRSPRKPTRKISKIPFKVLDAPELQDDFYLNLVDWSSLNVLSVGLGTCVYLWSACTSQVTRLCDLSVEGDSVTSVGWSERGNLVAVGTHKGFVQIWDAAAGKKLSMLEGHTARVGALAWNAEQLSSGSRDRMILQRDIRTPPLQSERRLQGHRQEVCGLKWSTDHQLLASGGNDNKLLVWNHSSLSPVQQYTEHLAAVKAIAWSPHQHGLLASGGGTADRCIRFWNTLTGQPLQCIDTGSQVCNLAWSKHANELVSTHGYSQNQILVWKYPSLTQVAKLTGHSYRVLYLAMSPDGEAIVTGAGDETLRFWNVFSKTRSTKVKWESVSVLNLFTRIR
UniProt O14980: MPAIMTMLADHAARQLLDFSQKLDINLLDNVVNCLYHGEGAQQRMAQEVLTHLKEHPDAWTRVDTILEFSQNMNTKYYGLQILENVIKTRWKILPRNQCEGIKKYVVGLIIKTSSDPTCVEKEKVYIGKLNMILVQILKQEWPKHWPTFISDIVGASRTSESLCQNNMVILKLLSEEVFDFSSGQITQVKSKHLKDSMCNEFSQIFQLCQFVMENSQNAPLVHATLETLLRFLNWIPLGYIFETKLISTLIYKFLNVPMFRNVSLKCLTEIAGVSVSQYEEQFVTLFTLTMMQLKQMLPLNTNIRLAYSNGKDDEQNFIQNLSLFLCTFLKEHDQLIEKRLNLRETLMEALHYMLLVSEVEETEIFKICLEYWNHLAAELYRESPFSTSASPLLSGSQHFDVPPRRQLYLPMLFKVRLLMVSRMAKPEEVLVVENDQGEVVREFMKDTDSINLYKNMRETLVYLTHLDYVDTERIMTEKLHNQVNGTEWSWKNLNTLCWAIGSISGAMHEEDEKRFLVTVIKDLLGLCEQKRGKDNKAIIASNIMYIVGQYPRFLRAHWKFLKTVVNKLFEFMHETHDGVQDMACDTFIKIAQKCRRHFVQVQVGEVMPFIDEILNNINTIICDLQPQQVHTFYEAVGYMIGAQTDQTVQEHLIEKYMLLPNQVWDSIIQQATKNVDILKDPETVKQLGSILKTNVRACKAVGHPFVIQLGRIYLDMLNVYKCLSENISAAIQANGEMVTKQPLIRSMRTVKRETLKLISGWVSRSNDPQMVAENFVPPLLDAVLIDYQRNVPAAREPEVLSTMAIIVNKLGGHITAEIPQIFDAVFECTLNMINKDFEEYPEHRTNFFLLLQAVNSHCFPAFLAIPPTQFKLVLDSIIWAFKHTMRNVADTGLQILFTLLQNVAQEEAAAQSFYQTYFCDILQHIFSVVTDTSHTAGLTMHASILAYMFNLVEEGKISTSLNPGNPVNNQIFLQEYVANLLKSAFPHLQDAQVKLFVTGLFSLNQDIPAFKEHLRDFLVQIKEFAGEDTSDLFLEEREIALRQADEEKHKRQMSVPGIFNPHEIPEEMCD
UniProt P06241: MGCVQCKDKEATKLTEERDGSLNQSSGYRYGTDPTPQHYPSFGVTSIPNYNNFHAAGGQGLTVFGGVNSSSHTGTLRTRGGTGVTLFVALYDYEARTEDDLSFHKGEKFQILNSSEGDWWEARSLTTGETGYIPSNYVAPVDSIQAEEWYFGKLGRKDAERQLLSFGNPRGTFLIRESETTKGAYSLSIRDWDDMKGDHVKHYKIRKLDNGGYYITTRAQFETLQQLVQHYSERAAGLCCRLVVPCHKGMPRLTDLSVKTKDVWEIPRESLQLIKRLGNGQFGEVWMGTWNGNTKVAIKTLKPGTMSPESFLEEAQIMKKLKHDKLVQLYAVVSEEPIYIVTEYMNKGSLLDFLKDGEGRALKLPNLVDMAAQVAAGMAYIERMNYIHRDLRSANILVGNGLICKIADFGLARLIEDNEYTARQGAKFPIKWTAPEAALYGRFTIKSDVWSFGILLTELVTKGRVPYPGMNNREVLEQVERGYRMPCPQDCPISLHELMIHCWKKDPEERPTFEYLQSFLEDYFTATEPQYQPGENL
UniProt P07947: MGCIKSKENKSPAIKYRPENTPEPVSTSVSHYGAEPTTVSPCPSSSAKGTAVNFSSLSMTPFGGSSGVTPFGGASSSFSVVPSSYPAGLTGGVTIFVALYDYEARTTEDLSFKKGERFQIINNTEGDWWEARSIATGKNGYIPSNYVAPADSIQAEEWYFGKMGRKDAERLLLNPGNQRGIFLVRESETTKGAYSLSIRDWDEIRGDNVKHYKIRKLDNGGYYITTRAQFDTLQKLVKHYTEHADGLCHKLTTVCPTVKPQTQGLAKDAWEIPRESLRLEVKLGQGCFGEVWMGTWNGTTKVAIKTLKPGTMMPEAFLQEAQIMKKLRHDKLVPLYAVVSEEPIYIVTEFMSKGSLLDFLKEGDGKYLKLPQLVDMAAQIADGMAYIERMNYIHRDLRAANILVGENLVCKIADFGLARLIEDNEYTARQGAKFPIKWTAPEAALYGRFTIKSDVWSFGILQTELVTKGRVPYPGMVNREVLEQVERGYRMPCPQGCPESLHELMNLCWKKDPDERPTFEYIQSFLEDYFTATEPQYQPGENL

What was measured:
HA-Cdh1 (human) = HA-Cdh1 (human) (UniProt Q9UM11); experiment: co-IP; 293T cells co-transfected with Flag- and HA-tagged constructs; lysis in EBC buffer (50 mM Tris pH 7.5, 120 mM NaCl, 0.5% NP-40); agarose-conjugated antibody 3-4 h at 4 °C; four washes with NETN buffer; immunoblot
Flag-CRM1 (human) = Flag-CRM1 (human) (UniProt O14980); experiment: as above
[1] = target: HA-Y148E-Cdh1 (stable in shCdh1-MDA-MB-231) (human) (UniProt Q9UM11); experiment: co-IP; anti-HA IP from shCdh1-MDA-MB-231 cells stably expressing HA-Cdh1 variants; endogenous partners detected by immunoblot
[2] = target: endogenous Cdh1 (human (endogenous in MCF7, MDA-MB-231, SUM159PT)) (UniProt Q9UM11); experiment: co-IP; endogenous proteins; anti-Cdh1 IP from lysates of MCF7, MDA-MB-231 and SUM159PT cells; cells in part treated with PDGF, sgSrc, dasatinib, PD0325901 or saracatinib

Substance	binding (HA-Cdh1 (human))	binding (Flag-CRM1 (human))	further results
Fyn (from UniProt P06241 1-537)	no binding	–	–
HA-Cdh1 (from UniProt Q9UM11 1-496)	–	binds	–
HA-Y148E-Cdh1 (293T) (from UniProt Q9UM11 1-496)	–	binds	–
Yes (from UniProt P07947 1-543)	no binding	–	–
endogenous CRM1 (from UniProt O14980 1-1071)	–	–	binding [1]: binds; binding [2]: binds
